# Reference: the supplement of paper PMC8728848
# The other results are listed elsewhere or left out.
# What was measured:
# Experiment in all cases: glycan array binding signal (z-score within array); higher = stronger binding
# Settings in all cases: glycan notation: IUPAC condensed, linker removed
# Fuc(a1-3)GlcNAc = biological target: Fuc(a1-3)GlcNAc
# In short: (§1)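 The Consortium for Functional Glycomics database supplied 3228 glycan arrays, of which those lacking an available protein sequence were dropped. The binding signal, a within-array Z-score, was averaged across arrays of the same protein sequence and across linkers. Negative scores can be read as non-binding.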
# [1] = biological target: Fuc(a1-3)[Gal(b1-4)]Glc6S
# In short: as §1
# [2] = biological target: Fuc(a1-3)[Gal(b1-4)]GlcNAc
# In short: as §1
# [3] = biological target: Fuc(a1-3)[Gal(b1-4)]GlcNAc(b1-2)Man
# In short: as §1
# [4] = biological target: Fuc(a1-3)[Gal(b1-4)]GlcNAc(b1-2)Man(a1-3)[Fuc(a1-3)[Gal(b1-4)]GlcNAc(b1-2)Man(a1-6)]Man(b1-4)GlcNAc(b1-4)GlcNAc
# In short: as §1
# [5] = biological target: Fuc(a1-3)[Gal(b1-4)]GlcNAc(b1-2)Man(a1-3)[Fuc(a1-3)[Gal(b1-4)]GlcNAc(b1-2)Man(a1-6)]Man(b1-4)GlcNAc(b1-4)[Fuc(a1-6)]GlcNAc
# In short: as §1
# [6] = biological target: Fuc(a1-3)[Gal(b1-4)]GlcNAc(b1-3)Gal(b1-3)[Fuc(a1-4)]GlcNAc
# In short: as §1
# [7] = biological target: Fuc(a1-3)[Gal(b1-4)]GlcNAc(b1-3)Gal(b1-4)[Fuc(a1-3)]GlcNAc
# In short: as §1
# [8] = biological target: Fuc(a1-3)[Gal(b1-4)]GlcNAc(b1-3)Gal(b1-4)[Fuc(a1-3)]GlcNAc(b1-3)Gal(b1-4)[Fuc(a1-3)]GlcNAc
# In short: as §1
# [9] = biological target: Fuc(a1-3)[Gal(b1-4)]GlcNAc(b1-3)GalNAc
# In short: as §1
# [10] = biological target: Fuc(a1-3)[Gal(b1-4)]GlcNAc(b1-6)GalNAc
# In short: as §1
# [11] = biological target: Fuc(a1-3)[Gal(b1-4)]GlcNAc(b1-6)[Gal(b1-3)GlcNAc(b1-3)]Gal(b1-4)Glc
# In short: as §1
# [12] = biological target: Fuc(a1-3)[Gal(b1-4)]GlcNAc6S
# In short: as §1
# [13] = biological target: Fuc(a1-3)[Gal3S(b1-4)]Glc
# In short: as §1
# [14] = biological target: Fuc(a1-3)[Gal3S(b1-4)]GlcNAc
# In short: as §1
# [15] = biological target: Fuc(a1-3)[Gal3S(b1-4)]GlcNAc6S
# In short: as §1
# [16] = biological target: Fuc(a1-3)[GalNAc(b1-4)]GlcNAc
# In short: as §1
# [17] = biological target: Fuc(a1-3)[GalNAc(b1-4)]GlcNAc6S
# In short: as §1
# Fuc(a1-4)GlcNAc = biological target: Fuc(a1-4)GlcNAc
# In short: as §1
# Fuc(b1-3)GlcNAc = biological target: Fuc(b1-3)GlcNAc
# In short: as §1
# Gal(a1-2)Gal = biological target: Gal(a1-2)Gal
# In short: as §1
# Gal(a1-3)Gal = biological target: Gal(a1-3)Gal
# In short: as §1
# Gal(a1-3)Gal(b1-3)GlcNAc = biological target: Gal(a1-3)Gal(b1-3)GlcNAc
# In short: as §1
# [18] = biological target: Gal(a1-3)Gal(b1-3)GlcNAc(b1-2)Man
# In short: as §1
# [19] = biological target: Gal(a1-3)Gal(b1-3)GlcNAc(b1-2)Man(a1-3)[Gal(a1-3)Gal(b1-3)GlcNAc(b1-2)Man(a1-6)]Man(b1-4)GlcNAc(b1-4)GlcNAc
# In short: as §1
# [20] = biological target: Gal(a1-3)Gal(b1-3)GlcNAc(b1-3)GalNAc
# In short: as §1
# [21] = biological target: Gal(a1-3)Gal(b1-3)GlcNAc(b1-6)GalNAc
# In short: as §1
# [22] = biological target: Gal(a1-3)Gal(b1-3)[Fuc(a1-4)]GlcNAc(b1-2)Man(a1-3)[Gal(a1-3)Gal(b1-3)[Fuc(a1-4)]GlcNAc(b1-2)Man(a1-6)]Man(b1-4)GlcNAc(b1-4)GlcNAc
# In short: as §1
# Gal(a1-3)Gal(b1-4)Glc = biological target: Gal(a1-3)Gal(b1-4)Glc
# In short: as §1
# Gal(a1-3)Gal(b1-4)GlcNAc = biological target: Gal(a1-3)Gal(b1-4)GlcNAc
# In short: as §1
# [23] = biological target: Gal(a1-3)Gal(b1-4)GlcNAc(b1-2)Man
# In short: as §1
# [24] = biological target: Gal(a1-3)Gal(b1-4)GlcNAc(b1-2)Man(a1-3)[Gal(a1-3)Gal(b1-4)GlcNAc(b1-2)Man(a1-6)]Man(b1-4)GlcNAc(b1-4)GlcNAc
# In short: as §1
# [25] = biological target: Gal(a1-3)Gal(b1-4)GlcNAc(b1-3)GalNAc
# In short: as §1
# [26] = biological target: Gal(a1-3)Gal(b1-4)GlcNAc(b1-6)GalNAc
# In short: as §1
# [27] = biological target: Gal(a1-3)Gal(b1-4)[Fuc(a1-3)]GlcNAc
# In short: as §1
# [28] = biological target: Gal(a1-3)Gal(b1-4)[Fuc(a1-3)]GlcNAc(b1-2)Man(a1-3)[Gal(a1-3)Gal(b1-4)[Fuc(a1-3)]GlcNAc(b1-2)Man(a1-6)]Man(b1-4)GlcNAc(b1-4)GlcNAc
# In short: as §1
# Gal(a1-3)GalNAc = biological target: Gal(a1-3)GalNAc
# In short: as §1
binder,measurement,setting,value
SBD-G4S3-Fc (protein) MASIPSSASVQLDSYNYDGSTFSGKIYVKNIAYSKKVTVVYADGSDNWNNNGNIIAASFSGPISGSNYEYWTFSASVKGIKEFYIKYEVSGKTYYDNNNSANYQVSTGGGGSGGGGSGGGGSEFVPRDCGCKPCICTVPEVSSVFIFPPKPKDVLTITLTPKVTCVVVDISKDDPEVQFSWFVDDVEVHTAQTQPREEQFNSTFRSVSELPIMHQDWLNGKEFKCRVNSAAFPAPIEKTISKTKGRPKAPQVYTIPPPKEQMAKDKVSLTCMITDFFPEDITVEWQWNGQPAENYKNTQPIMDTDGSYFVYSKLNVQKSNWEAGNTFTCSVLHEGLHNHHTEKSLSHSPGAA,glycan array binding signal (z-score),Fuc(a1-3)GlcNAc,-0.374
same,glycan array binding signal (z-score),[1],-0.089
same,glycan array binding signal (z-score),[2],-0.283
same,glycan array binding signal (z-score),[3],-0.075
same,glycan array binding signal (z-score),[4],-0.034
same,glycan array binding signal (z-score),[5],-0.131
same,glycan array binding signal (z-score),[6],-0.281
same,glycan array binding signal (z-score),[7],0.116
same,glycan array binding signal (z-score),[8],-0.056
same,glycan array binding signal (z-score),[9],-0.251
same,glycan array binding signal (z-score),[10],-0.122
same,glycan array binding signal (z-score),[11],-0.448
same,glycan array binding signal (z-score),[12],-0.406
same,glycan array binding signal (z-score),[13],-0.376
same,glycan array binding signal (z-score),[14],-0.12
same,glycan array binding signal (z-score),[15],-0.033
same,glycan array binding signal (z-score),[16],0.174
same,glycan array binding signal (z-score),[17],-0.32
same,glycan array binding signal (z-score),Fuc(a1-4)GlcNAc,-0.376
same,glycan array binding signal (z-score),Fuc(b1-3)GlcNAc,-0.254
same,glycan array binding signal (z-score),Gal(a1-2)Gal,-0.316
same,glycan array binding signal (z-score),Gal(a1-3)Gal,-0.039
same,glycan array binding signal (z-score),Gal(a1-3)Gal(b1-3)GlcNAc,0.292
same,glycan array binding signal (z-score),[18],-0.206
same,glycan array binding signal (z-score),[19],1.16
same,glycan array binding signal (z-score),[20],-0.119
same,glycan array binding signal (z-score),[21],-0.443
same,glycan array binding signal (z-score),[22],0.202
same,glycan array binding signal (z-score),Gal(a1-3)Gal(b1-4)Glc,0.017
same,glycan array binding signal (z-score),Gal(a1-3)Gal(b1-4)GlcNAc,-0.394
same,glycan array binding signal (z-score),[23],-0.234
same,glycan array binding signal (z-score),[24],0.629
same,glycan array binding signal (z-score),[25],0.357
same,glycan array binding signal (z-score),[26],0.184
same,glycan array binding signal (z-score),[27],-0.267
same,glycan array binding signal (z-score),[28],0.271
same,glycan array binding signal (z-score),Gal(a1-3)GalNAc,-0.096
